Measurements published in ChEMBL document CHEMBL4888484, “Replenishing the malaria drug discovery pipeline: Screening and hit evaluation of the MMV Hit Generation Library 1 (HGL1) against asexual blood stage Plasmodium falciparum ,using a nano luciferase reporter read-out” (2022).
The whole screen tested about 150,000 compounds, of which about 540 (0.36%) showed an effect of 50% or more. The list shows a part of the results.

tested on: Plasmodium falciparum; assay: Primary screen in NF54 nanoGlo assay, in single point, at 2uM, 72h; a lower Z score goes with more inhibition; type: functional, Erythrocyte; details: timepoint 72 hour

Compound | % Inhibition [%] | Z score
Cc1nnc(CC(=O)Nc2ccc(O[C@@H]3CCCC[C@H]3O)cc2)o1 | -11 | 1.68
CCc1nn(C)c(=O)c2cc(S(=O)(=O)Nc3ccc(OC)cc3)cn12 | -10 | 1.33
COCCNC(=O)NC[C@@H](c1cccs1)N1CCC(C)CC1 | -6 | 0.97
Cc1nc2nc(CN(C)C[C@H]3CCCO3)cc(O)n2n1 | -6 | 1.2
COc1cc(OC)nc(C(=O)N2CCCCc3cccnc32)n1 | 6 | -0.77
N#Cc1cccnc1N[C@H]1CCCN(CCCc2ccccc2)C1 | 6 | -0.89
Cc1cc(C(=O)N(C)C2C(C)CN(Cc3ccccc3)CC2C)[nH]n1 (stereo not drawn) | -6 | 0.68
CC1(C)NC(=O)N([C@@H]2COC3(CCC3)C2)C1=O | -7 | 1.36
Cn1nccc1[C@@H]1OCCC[C@H]1CNc1ncccc1C(=O)O | -12 | 1.55
Cc1cc(C)cc(-n2nc(C)cc2NC(=O)NCCn2ccnn2)c1 | -11 | 1.11
CCCCN(C)c1ccnc(C(=O)NCCN2C(=O)CCCC2=O)c1 | -11 | 1.44
O=C(c1ccnnc1)N1CCCCC[C@H]1c1ccccc1 | -15 | 1.75
C[C@H]1c2ccsc2CCN1C(=O)c1ccc2c(c1)CCC(=O)N2 | -5 | 0.8
CCOc1nc2c(c(C)nn2-c2ccc(C)cc2)c(C)c1CCC(=O)NCc1ccc(F)cc1 | -6 | 0.82
CCN(Cc1ccccn1)C(=O)N[C@H]1CCN(Cc2cc(OC)cc(OC)c2)C1 | 2 | -0.25
Cc1scc(C(=O)N2CCN(C3CCCCC3)CC2)c1C | 1 | -0.22
COc1ccc(Cl)cc1-n1cc(S(=O)(=O)N[C@H]2CCCNC2)cn1 | -15 | 1.82
N#Cc1ccc(C(=O)N[C@H]2CC[C@H](Oc3ncc(F)cn3)CC2)cc1 | -14 | 2.31
CC(C)(C)OC(=O)NCCNC(=O)[C@H]1CC(=O)N(c2n[nH]c3cccc(F)c23)C1 | -15 | 1.89
O=C(c1cccs1)N1CCC(n2cc(-c3ccncc3)nn2)CC1 | -17 | 2.6
Cc1ccc(NC(=O)CCCS(=O)(=O)N2CCCC2)cc1O | -6 | 0.58
O=C1CCC(=O)N1C1CC2CCC(C1)N2C(=O)c1cccc(Oc2ccc(F)cc2)c1 (stereo not drawn) | 0 | 0
Cc1ccc2cc(C(=O)NC3(CN4CCCC4)CCCCC3)n(C)c2c1 | 1 | -0.1
COc1ccc(Cl)cc1C(=O)[C@H]1CCCN(C(=O)CN2CCCC2)C1 | 2 | -0.43
Cc1ccn(CCCS(=O)(=O)C(C)C)c(=O)c1 | -13 | 2.55
Cc1nc([C@H](C)N(C)C(=O)N2CCN(C)CC2)c(C)s1 | -5 | 0.86
c1ccc(-c2cc(N3CCCCCC3)n[nH]2)cc1 | -7 | 0.94

Compound | % Inhibition [%] | Z score
CCN(C(=O)c1ccsc1)C1CCCCC1 | 2 | -0.16
O=S(=O)(c1cnn(CC(F)F)c1)N(CCc1ccccc1)C1CCCC1 | -6 | 0.89
C=CCNC(=O)[C@@H]1CCN(c2cccc3ccccc23)C1=O | -7 | 1.18
CC(C(=O)N1CCCCC1c1ncon1)C1CC1 (stereo not drawn) | -3 | 0.57
CC[C@@H]1Oc2ccc(NC(=O)c3cccc(OC)c3)cc2CN(Cc2cccc(OC)c2)C1=O | -3 | 0.51
CCOC(=O)Cc1csc(NC(=O)CCC2CCCCC2)n1 | -8 | 1.03
CC(C)CN1CC2(CCN(C(=O)c3cnc(C4CC4)nc3)CC2)CC1=O | 7 | -0.94
Cc1cc(C(=O)O[C@@H](C)C(=O)N2CCCCCC2)c(C)n1Cc1ccc(S(N)(=O)=O)cc1 | 2 | -0.32
CC[C@H]1COCCN1C(=O)Nc1nc2c(s1)CCCC2 | -17 | 2.5
Cc1cc(C(=O)N2CCOc3ccccc3[C@@H]2CO)[nH]n1 | -2 | 0.28
Cc1cccc(CN2CCc3ccc(OC(C)C(=O)NCc4cccc(F)c4)cc3C2c2ccccc2)c1 (stereo not drawn) | -5 | 0.75
Cc1cccc(S(=O)(=O)Nc2ccc3c(c2)C(=O)N(C)c2cc(C)ccc2O3)c1 | -11 | 1.27
CN1c2ncccc2CN(Cc2c[nH]c3ccccc23)CC[C@H]1CO | 3 | -0.47
Cc1cc(N2CCCCCC2)n2nc(-c3ccccc3C)nc2n1 | -16 | 2.89
Cc1ccc(-n2nc(C(=O)NCc3ccco3)c(=O)n([C@@H](C)c3ccccc3)c2=O)cc1F | -17 | 1.68
COCC1(NC(=O)c2cccc(-c3ccc(F)c(C(N)=O)c3)c2)CCCC1 | 5 | -0.84
COC1(CNC(=O)c2ccccc2C(C)=O)CCC1 | 3 | -0.39
N#Cc1ccnc(O[C@H]2CCCN(C(=O)CN3C(=O)CCC3=O)C2)c1 | -2 | 0.41
Cc1cc(C)nc(NCCc2cccs2)n1 | -8 | 1.34
CCc1nc(C)c(C(=O)N[C@@H](C)C(C)(C)C)s1 | -6 | 0.55
COc1ccccc1CNC(=O)c1cc(C)c2c(c1)-c1ccccc1S(=O)(=O)N2C | -12 | 1.47
COCCC(=O)NCCc1ncc(C)n1C1CCCCCCC1 | -1 | 0.16
CC[C@@H](CNC(=O)NCc1cccnc1)Oc1ccccc1 | 2 | -0.22
Cn1nc2cc(Br)ccc2c1C(=O)N1CC(n2ccnn2)C1 | -5 | 0.57
Cc1ccc2c(c1)OCCN2Cc1cc(C(N)=O)cs1 | -17 | 1.75
Cc1cc(C)cc(CN2CCN(C(=O)c3cnn[nH]3)CC2=O)c1 | -9 | 1.61
Cn1nc(CC2CCN(Cc3ccoc3)CC2)n(-c2ccccc2)c1=O | 0 | -0.04
